From PubChem BioAssay AID743279 (National Center for Advancing Translational Sciences (NCATS), 2014)
In all, about 360,000 compounds went through this assay and about 17,000 (4.7%) were called active. This list was built around the results that the source calls inconclusive (neither active nor inactive); the mix of calls is not that of the screen. No stated cut-off is given here; in the data, active means activity change below about -50%; inconclusive means mostly about -30% to -49%; inactive means weaker than that.

assay: qHTS for Inhibitors of Inflammasome Signaling: IL-1-beta AlphaLISA Primary Screen; settings: THP-1 LPS/ATP IL-1B secretion, 16 h; at 57.5 µM, active compounds read low
Method in brief: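 Secreted IL-1B measured by AlphaLISA bead assay after 16 h compound exposure of THP-1 cells; compounds (final up to 57.5 uM) added 1 h before LPS (250 ng/mL) and ATP (1.25 mM) stimulation; lower signal means less secretion.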
On the % scale 0 is the no-effect control and ±100 the full control effect.

Activity change, inconclusive:
Cc1ccc(S(=O)(=O)N2CC3(O)CN(C(=O)OC(C)C)N(C(=O)OC(C)C)CC3(OC(=O)NCC3CCCCC3)C2)cc1 (stereo unspecified) -32.9%, O=C(CNc1ccc(F)cc1)c1ccccc1 -42.2%, O=C1NC[C@H](CCCCN2C[C@H](Cc3ccccc3)N(CCC3CCCCC3)C(=O)C2=O)N(CCC2CCCCC2)C1=O -47.2%, Cn1cnc(S(=O)(=O)N2CCN(c3cccc(C(F)(F)F)c3)CC2)c1 -42.5%, O=C(Nc1ccccc1F)c1ccc(CSc2ncccn2)cc1 -31.9%, CCCCCc1c(CC)ncn1CCc1ccccc1OC -34.4%, CCOc1ccc(S(=O)(=O)N2CCN(CC(O)COc3cccc([N+](=O)[O-])c3)CC2)cc1 (stereo unspecified) -46.4%, COCCCNC(=O)c1c(N)n(-c2ccccc2)c2nc3ccccc3nc12 -45.8%, CCCCCCCNC(=O)C1(CC2CC(c3ccc(Cl)cc3)=NO2)CCN(C(=O)c2ccccc2)CC1 (stereo unspecified) -43.4%, NC(=O)COc1c(-c2ccco2)oc2ccccc2c1=O -37%, CCCn1nnc(NC(=O)c2ccc(-c3cccc(Cl)c3)o2)n1 -41.5%, C/C(=N\NC(=O)Cc1cccn1C)c1ccc([N+](=O)[O-])cc1 -46.5%, C=CCn1c(N)c(C(=O)OC(C)(C)C)c2nc3ccccc3nc21 -38.9%, CN(C)c1ccc(-c2ccnc3c2CC(C)(C(=O)NCc2cccc(Cl)c2)O3)cc1 (stereo unspecified) -38%, N=c1c(C(=O)NCCN2CCOCC2)cc2c(=O)n3ccccc3nc2n1Cc1ccc(F)cc1 -31.2%, Cn1c(NCc2cccnc2)nc2cc(-c3cccc(C(=O)NCCO)c3)sc2c1=O -33.5%, Cn1ccnc1C(=O)C1CCCN(Cc2cn[nH]c2-c2ccc(-c3ccccc3)cc2)C1 (stereo unspecified) -44.5%, Cc1nn(C)c(C(=O)NC(=S)Nc2ccccc2Br)c1Cl -36.1%, COc1ccccc1NC(=O)C1=C(C)N(c2ccccc2)C(=S)NC1c1cccc(C(F)(F)F)c1 (stereo unspecified) -38.4%, CC(C)CCNC(=O)COc1ccc(C(=O)c2ccccc2)cc1 -47.6%, CCCCCCn1c(=O)[nH]c2nc3cc(N)c(C)cc3nc2c1=O -49.3%, CC1CCN(S(=O)(=O)c2ccc3c(c2)N(CC(=O)NCCCN2CCCCC2C)C(=O)CS3)CC1 (stereo unspecified) -42.8%, CCCc1nc2c(C)cc(C)cc2c(N)c1CC -35%, CSc1ccc(NC(=O)Nc2cccn(Cc3ccccc3)c2=O)cc1 -44%, CC(=O)Nc1cc(-c2ccc(C(=O)N3CCOCC3)cc2)cn2c(-c3cccc(C(C)=O)c3)cnc12 -36%, COc1cc(/C=N/N=C2/C(=O)Nc3ccccc32)cc(OC)c1O -48.7%, CCCOc1ccc(C(=O)N2CCN(Cc3ccc4c(c3)OCO4)CC2)cc1 -35%, CC(=O)Nc1ccc(Nc2cc(-c3ccccc3)nc3ncnn23)cc1 -32.5%, CCN(CCCNC(=O)CCCn1c(=O)[nH]c2ccccc2c1=O)c1cccc(C)c1 -30.8%, COc1ccc(-c2onc3ccc(Cl)cc23)cc1 -39.9%, CS(=O)(=O)c1ccccc1C(=O)N1CCN(S(=O)(=O)c2ccc(C3CCCCC3)cc2)CC1 -31.2%, Cn1c(C(=O)NCCCN2CCN(c3ccccc3F)CC2)cc2c(=O)n(C)c3ccccc3c21 -38.7%

Activity change, inactive:
O=C(Nc1nccs1)c1ccc2sc([C@H]3C[C@H](O)[C@@H](CO)O3)nc2c1 3.87%, O=C(NCc1ccccc1)C(c1cccc2ccccc12)n1c(=O)c(-c2cc3ccccc3[nH]2)nc2ccccc21 (stereo unspecified) 55.4%, COc1cc(C(=S)NC2CCCCC2)ccc1O 5.59%, CC(O)(c1ccccc1)c1ccc2ccccc2n1 (stereo unspecified) 0%, CCCCCCCNC(=O)C1(CC2CC(c3ccc(Cl)cc3)=NO2)CCN(C(=O)OC(C)(C)C)CC1 (stereo unspecified) -10.4%, CCOC(=O)C1(CCOC)CCCCC1=O (stereo unspecified) -0.571%, Cc1cccc(COC[C@H](Cc2ccccc2)N2CCN(C(=O)c3cccc(C)c3)CCC2=O)c1 -12.5%, CCNc1ncnc2c1cnn2C1CCCCO1 (stereo unspecified) -1.98%, Nn1c(COc2ccccc2F)nnc1SCC(=O)NC1CCCCC1 -0.905%, CC(=O)C1=C(O)CC(c2ccccc2)CC1=NCCc1c(C)[nH]c2ccc(C)cc12 (stereo unspecified) 0.74%, O=C1CN(C(=O)c2ccc(Br)o2)C(c2ccc(F)cc2)c2cc(F)ccc2N1 (stereo unspecified) -24.8%, O=CNc1cc(-c2ccsc2)cn2c(-c3ccccc3)cnc12 24.2%, CN1CCCN(S(=O)(=O)c2ccccc2)c2nc3ccccc3nc21 -8.78%, O=C(COC(=O)CCC(=O)c1ccc(Cl)cc1)NC1CC1 1.58%

Activity change, active:
OC(CN1CC=C(/C=C/c2ccc(Br)cc2)CC1)c1ccccc1 (stereo unspecified) -72.7%, CCCCS(=O)(=O)/C=C\C=C/S(=O)(=O)CCCC -123%, COc1ccccc1Nc1nc(NCCCN(C)C)nc(N)c1[N+](=O)[O-] -63.5%, Cc1ccccc1S(=O)(=O)NC1OC(=O)C(Cl)=C1Cl (stereo unspecified) -107%, CC(C)c1ccc(NC(=O)C2(C)Cc3c(-c4cccc(C(N)=O)c4)ccnc3O2)cc1 (stereo unspecified) -69.1%, C=CCNCCCOc1ccc(C(C)(C)c2ccccc2)cc1 -89.3%, COc1ccc(-c2csc(N(CCCN(C)C)C(=O)c3ccccc3Cl)n2)cc1 -72.4%, CC1(C)C2CCC1(C)C(SC(=N)N)C2 (stereo unspecified) -82.4%, COc1ccccc1/C=C/C(=O)NC(=S)NCC1CCCO1 (stereo unspecified) -62%, COc1cc(NC(=O)C2=C(C)OCCS2)c(Cl)cc1C(=O)NCCN(C)C -82.9%
